In the supplement of paper PMC3694890:
± gives the uncertainty stated by the source. The list shows a part of the results. Phosphotyrosine is written y.

The binders below were run against GRB2 (endogenous complexes from cell lysate), P62993 (assay: GRB2 complex binding differential signal (pY peptide minus Ala control peptide) (fluorescence intensity units); higher = stronger GRB2 complex binding). Conditions: MCF7.
Method: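 In situ synthesized µParaflo PepArray of 6-mer peptides, each starting with an N-terminal phosphotyrosine (lowercase 'y' = pY) followed by 5 native residues. Peptides are tethered to glass through a long linker. Chips were incubated overnight at 4°C with total cell lysate (1 mg in 1 mL) from MCF10A, MCF7, T47D or MDA-MB-231 cells. Bound endogenous GRB2-containing complexes were detected with rabbit anti-GRB2 and an Alexa647 secondary antibody. Signals are background-subtracted and averaged over replicate spots, then the matched Ala-substituted control peptide signal is subtracted (differential signal).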
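Further: phosphopeptide probes on the chip at 1–4 µM, lysate proteins bound in 20 mM Tris pH 7.0 buffer with 140 mM NaCl, 1% Triton X-100 and 5% glycerol.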

Binder	GRB2 complex binding differential signal
yQELQS [FES_811/A1]	648 ± 300
yWTSPE [FGFR1_154/A1]	239 ± 650
ySDPQP [FGFR1_280/A1]	3600 ± 330
yVQILK [FGFR1_307/A1]	5640 ± 660
yALPHA [ACTS_171/A1]	11500 ± 1800
yELPED [FGFR1_463/A1]	2350 ± 2000
yCYNPS [FGFR1_583/A1]	235 ± 360
yNPSHN [FGFR1_585/A1]	-817 ± 1300
yQVARG [FGFR1_605/A1]	4550 ± 830
yYKKTT [FGFR1_653/A1]	691 ± 410
yKKTTN [FGFR1_654/A1]	322 ± 300
yMMMRD [FGFR1_730/A1]	201 ± 360
yLDLSM [FGFR1_766/A1]	-982 ± 3500
ySYDIN [FGFR2_586/A1]	-525 ± 1400
yDINRV [FGFR2_588/A1]	2260 ± 1500
yLMKIL [ACTS_190/A1]	481 ± 270
yLDLSQ [FGFR2_769/A1]	42 ± 240

Binder	GRB2 complex binding differential signal
yEPCLP [FGFR2_805/A1]	498 ± 290
yPHING [FGFR2_812/A1]	268 ± 440
ySFDTC [FGFR3_577/A1]	164 ± 260
yMIMRE [FGFR3_724/A1]	368 ± 380
yLDLSA [FGFR3_760/A1]	-29.6 ± 380
ySPGGQ [FGFR3_770/A1]	-818 ± 1900
yKKTSN [FGFR4_643/A1]	407 ± 340
yLDLRL [FGFR4_754/A1]	275 ± 580
yGAADH [FGR_28/A1]	668 ± 260
ySFVTT [ACTS_200/A1]	99.6 ± 800
yGPDPT [FGR_34/A1]	1490 ± 580
yNPCQG [FGR_412/A1]	60.2 ± 1200
yQPGDQ [FGR_523/A1]	629 ± 410
yYCVDC [FHL1_207/A1]	84 ± 130
yKNFVA [FHL1_213/A1]	55700 ± 7700
yCPDCA [FHL1_272/A1]	210 ± 150

Same assay, conditions: MCF10A

Binder	GRB2 complex binding differential signal
yQELQS [FES_811/A1]	569 ± 260
yWTSPE [FGFR1_154/A1]	172 ± 200
ySDPQP [FGFR1_280/A1]	2130 ± 560
yVQILK [FGFR1_307/A1]	1210 ± 220
yALPHA [ACTS_171/A1]	4900 ± 1500
yELPED [FGFR1_463/A1]	2030 ± 540
yCYNPS [FGFR1_583/A1]	-17.4 ± 420
yNPSHN [FGFR1_585/A1]	1120 ± 560
yQVARG [FGFR1_605/A1]	2630 ± 330
yYKKTT [FGFR1_653/A1]	407 ± 700
yKKTTN [FGFR1_654/A1]	66.6 ± 190
yMMMRD [FGFR1_730/A1]	186 ± 290
yLDLSM [FGFR1_766/A1]	-43.3 ± 270
ySYDIN [FGFR2_586/A1]	-51.9 ± 300
yDINRV [FGFR2_588/A1]	231 ± 370
yLMKIL [ACTS_190/A1]	223 ± 190
yLDLSQ [FGFR2_769/A1]	-206 ± 390

Binder	GRB2 complex binding differential signal
yEPCLP [FGFR2_805/A1]	230 ± 480
yPHING [FGFR2_812/A1]	636 ± 220
ySFDTC [FGFR3_577/A1]	65.8 ± 130
yMIMRE [FGFR3_724/A1]	503 ± 160
yLDLSA [FGFR3_760/A1]	219 ± 230
ySPGGQ [FGFR3_770/A1]	-157 ± 1200
yKKTSN [FGFR4_643/A1]	377 ± 160
yLDLRL [FGFR4_754/A1]	177 ± 170
yGAADH [FGR_28/A1]	-53.8 ± 390
ySFVTT [ACTS_200/A1]	484 ± 510
yGPDPT [FGR_34/A1]	-806 ± 880
yNPCQG [FGR_412/A1]	-16.4 ± 380
yQPGDQ [FGR_523/A1]	998 ± 750
yYCVDC [FHL1_207/A1]	150 ± 390
yKNFVA [FHL1_213/A1]	48700 ± 8500
yCPDCA [FHL1_272/A1]	79.7 ± 210

Same assay, conditions: MDA-MB-231

Binder	GRB2 complex binding differential signal
yQELQS [FES_811/A1]	884 ± 510
yWTSPE [FGFR1_154/A1]	357 ± 260
ySDPQP [FGFR1_280/A1]	1660 ± 580
yVQILK [FGFR1_307/A1]	2310 ± 620
yALPHA [ACTS_171/A1]	2600 ± 430
yELPED [FGFR1_463/A1]	1960 ± 490
yCYNPS [FGFR1_583/A1]	335 ± 270
yNPSHN [FGFR1_585/A1]	301 ± 790
yQVARG [FGFR1_605/A1]	297 ± 300
yYKKTT [FGFR1_653/A1]	566 ± 450
yKKTTN [FGFR1_654/A1]	553 ± 330
yMMMRD [FGFR1_730/A1]	338 ± 520
yLDLSM [FGFR1_766/A1]	437 ± 340
ySYDIN [FGFR2_586/A1]	642 ± 350
yDINRV [FGFR2_588/A1]	587 ± 550
yLMKIL [ACTS_190/A1]	378 ± 270
yLDLSQ [FGFR2_769/A1]	589 ± 460

Binder	GRB2 complex binding differential signal
yEPCLP [FGFR2_805/A1]	1020 ± 490
yPHING [FGFR2_812/A1]	435 ± 440
ySFDTC [FGFR3_577/A1]	172 ± 270
yMIMRE [FGFR3_724/A1]	334 ± 250
yLDLSA [FGFR3_760/A1]	515 ± 330
ySPGGQ [FGFR3_770/A1]	278 ± 350
yKKTSN [FGFR4_643/A1]	801 ± 370
yLDLRL [FGFR4_754/A1]	342 ± 380
yGAADH [FGR_28/A1]	613 ± 400
ySFVTT [ACTS_200/A1]	2830 ± 640
yGPDPT [FGR_34/A1]	767 ± 340
yNPCQG [FGR_412/A1]	166 ± 320
yQPGDQ [FGR_523/A1]	501 ± 370
yYCVDC [FHL1_207/A1]	242 ± 250
yKNFVA [FHL1_213/A1]	4180 ± 540
yCPDCA [FHL1_272/A1]	82.5 ± 300

Same assay, conditions: T47D

Binder	GRB2 complex binding differential signal
yQELQS [FES_811/A1]	1070 ± 1200
yWTSPE [FGFR1_154/A1]	666 ± 2000
ySDPQP [FGFR1_280/A1]	1650 ± 1100
yVQILK [FGFR1_307/A1]	5430 ± 1300
yALPHA [ACTS_171/A1]	2820 ± 1300
yELPED [FGFR1_463/A1]	1180 ± 1100
yCYNPS [FGFR1_583/A1]	569 ± 1200
yNPSHN [FGFR1_585/A1]	-85.2 ± 1100
yQVARG [FGFR1_605/A1]	741 ± 1200
yYKKTT [FGFR1_653/A1]	919 ± 1000
yKKTTN [FGFR1_654/A1]	1130 ± 1400
yMMMRD [FGFR1_730/A1]	1030 ± 1300
yLDLSM [FGFR1_766/A1]	147 ± 1500
ySYDIN [FGFR2_586/A1]	585 ± 910
yDINRV [FGFR2_588/A1]	362 ± 1700
yLMKIL [ACTS_190/A1]	847 ± 2300

Binder	GRB2 complex binding differential signal
yLDLSQ [FGFR2_769/A1]	-190 ± 880
yEPCLP [FGFR2_805/A1]	1040 ± 1200
yPHING [FGFR2_812/A1]	217 ± 1200
ySFDTC [FGFR3_577/A1]	31.1 ± 910
yMIMRE [FGFR3_724/A1]	174 ± 710
yLDLSA [FGFR3_760/A1]	609 ± 1100
ySPGGQ [FGFR3_770/A1]	49.7 ± 1200
yKKTSN [FGFR4_643/A1]	1050 ± 1700
yLDLRL [FGFR4_754/A1]	579 ± 950
yGAADH [FGR_28/A1]	406 ± 1300
ySFVTT [ACTS_200/A1]	10900 ± 2600
yGPDPT [FGR_34/A1]	366 ± 880
yNPCQG [FGR_412/A1]	371 ± 1500
yQPGDQ [FGR_523/A1]	245 ± 900
yYCVDC [FHL1_207/A1]	190 ± 1000
yKNFVA [FHL1_213/A1]	21200 ± 5600
